The source of these data is CN113583116A.

For the test, the target named is SARS-CoV-2 受体结合域RBD蛋白 RBD-His (SARS-CoV-2).

B1: 小鼠单克隆抗体36H6 (antibody, V domains shown)
VH: EVQLQQSGPELVNPGASVKISCKTSGYTFTEYTMHWVKQSHGKSLEWIGGINPNNGDTIYNQKFKGKATLTVDKSSSTAYMELRSLTSEDSAVFYCAREGDYYVSSYGYWGQGTTLTVSS
VL: [not shown - about 120 residues]
Broadly, the Kd is the equilibrium constant for the complex coming apart. Higher therefore signals a looser complex. B1 displayed a Kd of 5.84 nM.
